Experimental findings from patent US20250375475A1 (priority 2024, published 2025) are described below.

The assay concerns CD86+ circulating phagocytes. Particulars: FIG. 4; Aβ1-40 rat models of Alzheimer's disease.

With ^64Zn L-Aspartate, the “relative number of CD86+ circulating phagocytes / CD86 expression” value is “reduced CD86 expression”.
